PubChem BioAssay AID1508642 (National Center for Advancing Translational Sciences (NCATS), 2021)
The campaign covered roughly 43,000 compounds. About 200 (0.47%) were called active. Not shown: some 12% with an inconclusive outcome. Calls follow the shape of the dose curve; as a rule, active = well fitted cell-killing curve with a large enough effect; inconclusive = small, poorly fitted or top-dose-only effect, or effect the other way; inactive = flat fitted curve, though single readings scatter. The list shows a part of the results.

Assay: Cell viability qHTS assay in S16 Pmp22-F2sN cells; also: nearly all actives have a fitted effect of over 65% in size
Conditions: S16 Pmp22-F2sN Schwann cells (luciferase reporters placed in the Pmp22 gene) viability, CellTiter-Glo, 24 h; series mostly up to 57.5 µM; activity change, negative = cytotoxicity: at the top concentration
Method in brief: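 S16 Schwann cells carrying the Pmp22-F2sN reporter, seeded in 1536-well format, were exposed to library compounds for 24 h at 37C. Viability was read as CellTiter-Glo luminescence after 15 min at room temperature.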
% is scaled to controls: 0 for no effect and ±100 for the full control effect.

Row | SMILES | activity change, negative = cytotoxicity
1 | Cc1nn(CC(=O)N2CCN(c3ccc(Cl)cc3)CC2)c(=O)c2cccn12 | inactive: 10.7%
2 | COc1ccc(OCC(O)Cn2c(NCCO)nc3c2c(=O)n(C)c(=O)n3C)cc1 (stereo unspecified) | inactive: -1.26%
3 | CCOC(=O)CSc1nc2c(sc3ccccc32)c(=O)n1CCO | inactive: 6.77%
4 | COc1ccccc1CNC(=O)c1cn(C)c2ccc(S(=O)(=O)N(C)C3CCCCC3)cc2c1=O | inactive: -0.747%
5 | Cc1ccc(NC(=O)CSc2cn(CC(=O)N3CCCC3)c3ccccc23)cc1Cl | inactive: -14.7%
6 | CCOc1ccc(NS(=O)(=O)c2ccc3c(c2)CCCN3C(=O)C2CCC2)cc1 | inactive: -15.1%
7 | O=C(CSc1nc2c([nH]c3ccccc32)c(=O)n1-c1ccc(Cl)cc1)c1ccccc1 | inactive: -4.19%
8 | Cc1ccc2nc(COc3ccccc3NC(=O)c3ccc(F)cc3)cc(=O)n2c1 | inactive: -0.623%
9 | Cc1ccc2c(=O)cc(C(=O)Nc3ccc(S(=O)(=O)Nc4ncccn4)cc3)oc2c1C | inactive: 7.36%
10 | Cc1cc(C)c(NC(=O)C2CCN(c3nn4c(=O)cc(C)nc4s3)CC2)c(C)c1 | inactive: 6.22%
11 | COc1ccc(NCc2cccn2-c2nnc(N3CCCCC3)s2)cc1OC | inactive: 9.4%
12 | O=C(CSC1=Nc2ccccc2N=C(c2ccc(F)cc2)C1)Nc1ccccc1 | inactive: 25.6%
13 | CCOc1ccc(NC(=O)c2c(NC(=O)Cc3ccccc3)sc3c2CCCCC3)cc1 | inactive: -21.4%
14 | Cc1ccc(-n2c(=O)c3c(c4cc(C)ccc4n3C)n(CC(=O)N3CCCC3)c2=O)cc1 | inactive: 17.7%
15 | CCOCCCN1C(=O)c2ccccc2CC1(C)C(=O)NC1CCCCC1 (stereo unspecified) | inactive: 9.21%
16 | COC(=O)c1ccccc1NC(=O)c1sc2nc(C)cc(C)c2c1NC(=O)c1ccccc1OC | inactive: -11.9%
17 | Cc1noc(C)c1S(=O)(=O)N(CC(=O)NCCc1ccccc1)c1ccc(C(C)C)cc1 | inactive: -0.664%
18 | COc1cc(-c2nc(Cn3nnc(C(=O)Nc4cccc(Cl)c4)c3C)c(C)o2)cc(OC)c1OC | inactive: 21.3%
19 | Cc1ccc(-c2cn3c(n2)sc2cc(C(=O)NCCC4=CCCCC4)ccc23)cc1 | inactive: 15.9%
20 | COc1ccc(NC(=O)CSc2nc3c(oc4ccccc43)c(=O)n2Cc2ccco2)cc1Cl | inactive: -18.1%
21 | COc1ccc(/C=C/C(=O)Nc2nc(-c3cccs3)ns2)cc1 | inactive: 9.05%
22 | CC1CCN(S(=O)(=O)c2nnc(NC(=O)c3cccc(Cl)c3)s2)CC1 | inactive: -16.7%
23 | COc1ccc2nc(N(Cc3cccnc3)C(=O)Cc3ccccc3)sc2c1 | inactive: -3.5%
24 | CC(=O)N1CCc2cc(S(=O)(=O)C(C)CC(=O)Nc3ccc(Br)c(C)c3)ccc21 (stereo unspecified) | inactive: 0.619%
25 | CCc1cccc(-n2c(=O)c3cccnc3n2CC(=O)Nc2c(C)cc(C)cc2C)c1 | inactive: -9.56%
26 | COc1cc(S(=O)(=O)NCCc2c(C)[nH]c3ccccc23)c(C)cc1C | inactive: -8.19%
